Where a chain is given by its changes, count along the chain named. Blank lines part the entries; values can stand above or below the molecule they belong to.
Experiments:
redMIF = molecular target: T1, redMIF (Homo sapiens, UniProt P14174); assay: Differential binding of anti-MIF antibodies to redMIF (ELISA / Biacore surface plasmon resonance); conditions: for binding of recombinant MIF proteins to coated antibody (Biacore): native HBS-EP buffer without addition of ProClin300
T1 sequence (P14174 1-115): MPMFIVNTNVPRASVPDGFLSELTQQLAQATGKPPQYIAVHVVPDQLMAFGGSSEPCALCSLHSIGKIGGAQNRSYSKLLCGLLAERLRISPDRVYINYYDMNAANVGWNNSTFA
Description: (§1) The anti-oxMIF antibodies described in this invention are able to discriminate between ox and red MIF, which are generated by mild oxidation or reduction, respectively. The anti-oxMIF antibodies are useful to specifically detect oxMIF. Discrimination between these conformers is assessed by ELISA or surface plasmon resonance. Both techniques can be performed as well known to a person skilled in the art and as described below.
(§2) The antibodies were coated on a CM5 (=carboxymethylated dextran) chip and recombinant MIF protein, pre-incubated with 0.2% Proclin300, were injected. (Proclin300 consists of oxidative isothiazolones that stabilize the oxMIF structure).

oxMIF = molecular target: T2, oxMIF (Homo sapiens, UniProt P14174); assay: Differential binding of anti-MIF antibodies to oxMIF (ELISA / Biacore surface plasmon resonance)
T2 sequence (P14174 1-115): T1 sequence (P14174 1-115)
Description: as §1, §2

[1] = system: immune mediated-nephrotoxic nephritis (NTN) in Wistar Kyoto (WKY) rats; assay: Animal model for crescentic glomerulonephritis (nephrotoxic nephritis); type: in vivo, rat; conditions: days 4 and 6 after induction; for reduction of albuminuria / reduction of crescent counts / reduction of macrophage infiltration: day 8
From the text: This model is recognized in the art as predictable to show the effects of the invention. It is suitable to show the effects of the combination therapy over the complete range of diseases which can be subsumed under the above definition of “MIF related diseases” particularly, this model is suitable for the following diseases: Lupus nephritis, anti-GBM nephritis, ANCA nephritis, IgA nephropathy. Dexamethasone is recognized in the art as predictive for a respective glucocorticoid in the treatment of a human. […] This model has a rapid onset of disease with macrophage infiltration, fibrin deposition and tissue destruction 12. NTN is induced in male WKY rats by single intravenous injection of 0.1 ml rabbit anti-rat glomerular basement membrane serum (day 0). mAb and Dexamethasone is injected intraperitoneally at time points and dosages described below. 24 hour urine samples are collected using metabolic cages before induction of glomerulonephritis and at various time intervals after induction of nephritis for quantification of proteinuria. Sections of renal tissues are frozen for subsequent analysis by immunohistology. Morphology of renal injury is assessed in haematoxylin/eosin (H&E) and periodic acid-Schiff (PAS) stained renal tissue sections. Macrophage is detected by immunoperoxidase technique and using the monoclonal mouse antibody ED1 (Serotec, U C). The animal model was described in detail (Tam F W K, Smith J, Morel D, Karkar A M, Thompson E M, Cook H T, Pusey C D: Development of scarring and renal failure in a rat model of crescentic glomerulonephritis. Nephrol Dial Transplant 14:1658-1666, 1999).

B1: RAB0: anti-oxMIF antibody (IgG4); light chain SEQ ID NO: 3, heavy chain SEQ ID NO: 7; plasmids DSM 25114 and DSM 25115 (antibody)
heavy: EVQLLESGGGLVQPGGSLRLSCAASGFTFSWYAMDWVRQAPGKGLEWVSGIYPSGGRTKYADSVKGRFTISRDNSKNTLYLQMNSLRAEDTAVYYCARVNVIAVAGTGYYYYGMDVWGQGTTVTVSSASTKGPSVFPLAPCSRSTSESTAALGCLVKDYFPEPVTVSWNSGALTSGVHTFPAVLQSSGLYSLSSVVTVPSSSLGTKTYTCNVDHKPSNTKVDKRV[sequence of human IgG4 Fc with S228P (EU numbers) not given]
light: DIQMTQSPGTLSLSPGERATLSCRASQGVSSSSLAWYQQKPGQAPRLLIYGTSSRATGIPDRFSGSASGTDFTLTISRLQPEDFAVYYCQQYGRSLTFGGGTKVEIKRTVAAPSVFIFPPSDEQLKSGTASVVCLLNNFYPREAKVQWKVDNALQSGNSQESVTEQDSKDSTYSLSSTLTLSKADYEKHKVYACEVTHQGLSSPVTKSFNRGEC
modifications: Heavy chain of RAB0; Light chain of RAB0
notes: anti-oxMIF antibody (IgG4); plasmids DSM 25114 and DSM 25115
binding to redMIF (MIF in its reduced state) (redMIF): incapable of binding to redMIF | binding of recombinant MIF proteins to coated antibody (Biacore) (redMIF): none of the recombinant MIF proteins bound | binding to oxMIF (oxMIF): specifically bind to oxMIF

B3: RAB4: anti-oxMIF antibody (IgG4); light chain SEQ ID NO: 2, heavy chain SEQ ID NO: 6; plasmids DSM 25110 and DSM 25112 (antibody)
heavy: B1 heavy with W31I, Y52V, R57F
light: B1 light
modifications: Heavy chain of RAB4; Light chain of RAB4
notes: anti-oxMIF antibody (IgG4); plasmids DSM 25110 and DSM 25112
binding to redMIF (MIF in its reduced state) (redMIF): incapable of binding to redMIF | binding to oxMIF (oxMIF): specifically bind to oxMIF

B5: RAB9: anti-oxMIF antibody (IgG4); light chain SEQ ID NO: 1, heavy chain SEQ ID NO: 5; plasmids DSM 25111 and DSM 25113 (antibody)
heavy: EVQLLESGGGLVQPGGSLRLSCAASGFTFSIYSMNWVRQAPGKGLEWVSSIGSSGGTTYYADSVKGRFTISRDNSKNTLYLQMNSLRAEDTAVYYCAGSQWLYGMDVWGQGTTVTVSSASTKGPSVFPLAPCSRSTSESTAALGCLVKDYFPEPVTVSWNSGALTSGVHTFPAVLQSSGLYSLSSVVTVPSSSLGTKTYTCNVDHKPSNTKVDKRV[sequence of human IgG4 Fc with S228P (EU numbers) not given]
light: DIQMTQSPSSLSASVGDRVTITCRSSQRIMTYLNWYQQKPGKAPKLLIFVASHSQSGVPSRFRGSGSETDFTLTISGLQPEDSATYYCQQSFWTPLTFGGGTKVEIKRTVAAPSVFIFPPSDEQLKSGTASVVCLLNNFYPREAKVQWKVDNALQSGNSQESVTEQDSKDSTYSLSSTLTLSKADYEKHKVYACEVTHQGLSSPVTKSFNRGEC
modifications: Heavy chain of RAB9; Light chain of RAB9
notes: anti-oxMIF antibody (IgG4); plasmids DSM 25111 and DSM 25113
binding to redMIF (MIF in its reduced state) (redMIF): incapable of binding to redMIF | binding of recombinant MIF proteins to coated antibody (Biacore) (redMIF): none of the recombinant MIF proteins bound | binding to oxMIF (oxMIF): specifically bind to oxMIF

Continued, in another order:

binding to oxMIF (oxMIF): This binding is also observed
B2: RAM0: anti-oxMIF antibody; heavy chain SEQ ID NO: 9, light chain SEQ ID NO: 10; same specificity as RAB0 (antibody)
heavy: EVQLLESGGGLVQPGGSLRLSCAASGFTFSWYAMDWVRQAPGKGLEWVSGIYPSGGRTKYADSVKGRFTISRDNSKNTLYLQMNSLRAEDTAVYYCARVNVIAVAGTGYYYYGMDVWGQGTTVTVSSASTKGPSVFPLAPSSKSTSGGTAALGCLVKDYFPEPVTVSWNSGALTSGVHTFPAVLQSSGLYSLSSVVTVPSSSLGTQTYICNVNHKPSNTKVDKRV[sequence of human IgG1 Fc not given]
light: B1 light
modifications: RAM0hc; RAM0lc
notes: anti-oxMIF antibody; same specificity as RAB0
binding to redMIF (MIF in its reduced state) (redMIF): do not bind to unmodified MIF in its reduced state

binding to oxMIF (oxMIF): This binding is also observed
B4: RAM4: anti-oxMIF antibody; heavy chain SEQ ID NO: 13, light chain SEQ ID NO: 14; same specificity as RAB4 (antibody)
heavy: B2 heavy with W31I, Y52V, R57F
light: B1 light
modifications: RAM4hc; RAM4lc
notes: anti-oxMIF antibody; same specificity as RAB4
binding to redMIF (MIF in its reduced state) (redMIF): do not bind to unmodified MIF in its reduced state

binding to oxMIF (oxMIF): This binding is also observed
B6: RAM9: anti-oxMIF antibody; heavy chain SEQ ID NO: 11, light chain SEQ ID NO: 12; same specificity as RAB9 (antibody)
heavy: EVQLLESGGGLVQPGGSLRLSCAASGFTFSIYSMNWVRQAPGKGLEWVSSIGSSGGTTYYADSVKGRFTISRDNSKNTLYLQMNSLRAEDTAVYYCAGSQWLYGMDVWGQGTTVTVSSASTKGPSVFPLAPSSKSTSGGTAALGCLVKDYFPEPVTVSWNSGALTSGVHTFPAVLQSSGLYSLSSVVTVPSSSLGTQTYICNVNHKPSNTKVDKRV[sequence of human IgG1 Fc not given]
light: B5 light
modifications: RAM9hc; RAM9lc
notes: anti-oxMIF antibody; same specificity as RAB9
binding to redMIF (MIF in its reduced state) (redMIF): do not bind to unmodified MIF in its reduced state | reduction of albuminuria ([1]; 60 mg/kg intraperitoneal): approx. 22% | reduction of crescent counts ([1]; 60 mg/kg intraperitoneal): approximately 10% | reduction of macrophage infiltration ([1]; 60 mg/kg intraperitoneal): approximately 26% | reduction of albuminuria ([1]; 120 mg/kg intraperitoneal): approx. 25% | reduction of crescent counts ([1]; 120 mg/kg intraperitoneal): approximately 12% | reduction of macrophage infiltration ([1]; 120 mg/kg intraperitoneal): approximately 38% | 11-13 in urine ([1]; intraperitoneal): reduced | MIF in urine ([1]; intraperitoneal): reduced | TNFα in urine ([1]; intraperitoneal): reduced

From patent publication US20210187105A1, “COMBINATION THERAPY OF ANTI-MIF ANTIBODIES AND GLUCOCORTICOIDS” (Baxalta Incorporated, priority 2012, published 2021)
